Laboratory results: PubChem BioAssay AID651820 (National Center for Advancing Translational Sciences (NCATS), 2012)
The campaign covered roughly 340,000 compounds. About 12,000 (3.5%) were called active. The inconclusive results got no clear call from the source; some entries with a clear call stand among them for comparison. Calls come from the whole dose curve; as a rule, active = well fitted inhibition curve with a large enough effect; inconclusive = small, poorly fitted or top-dose-only effect, or another doubt; inactive = no such curve, though single readings can be large or run the other way. Potencies of inconclusive entries are left out as doubtful fits.
% is set by controls: 0 for no effect and ±100 for the full control effect; potency is the fitted concentration of half-maximal effect; tags give direction and shape of the fitted curve.

Assay: qHTS Assay for Inhibitors of Hepatitis C Virus (HCV)
Settings: Huh7.5.1 HCVcc-Cre (HCVcc is cell-culture hepatitis C virus) infection, luciferase reporter, 44 h; activity change, negative = inhibition: at 41.8 µM (top of the series) unless noted
In short: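 1,000 cells/well; 4 h culture; + compound; + HCVcc-Cre (~0.5 moi); 44 h; luciferase substrate, RT 15 min; read 15 sec.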
In the case of `COc1ccc(-c2cc3ncc(-c4ccccc4)c(N)n3n2)cc1`, the Potency is reported as inconclusive [inhibitor, partial curve]. In the case of `CC(=O)Cc1nsc(NC(=O)c2ccc(COc3ccccc3C)o2)n1`, the “activity change, negative = inhibition” value is reported as inactive: 6.4%. For `O=C(COc1ccc(Cl)cc1[N+](=O)[O-])N/N=C/c1cccs1`, the Potency was inconclusive [inhibitor, single point]. For `Cc1ccc2[nH]c3c(c2c1)CN(C(=O)CN1C[C@H]2C[C@@H](C1)c1cccc(=O)n1C2)CC3`, the “activity change, negative = inhibition” value was inactive: 12%. In the case of `Cc1ccc(S(=O)(=O)N(C)C)cc1NC(=S)NC(C)CCCC(C)C` (stereo not drawn), the Potency is reported as inconclusive [inhibitor, single point]. With `CCc1ccc(-c2cc(C(=O)N3N=C(C(F)F)CC3(O)C(F)F)c3ccccc3n2)cc1` (stereo not drawn) the Potency was inconclusive [inhibitor, single point]. For `Cc1cc(NC(=O)c2cc3cccc([N+](=O)[O-])c3[nH]2)ccc1F`, the Potency was active: 11.2 µM. With `CCOC(=O)C(=NC(C)CC)NNc1ccc(Br)cc1` (stereo not drawn) the Potency was inconclusive [inhibitor, single point]. For `CCOc1ccc(N=Cc2c(O)c3ccccc3oc2=O)cc1`, the “activity change, negative = inhibition” value was inactive: 0.541%. With `Cc1ccc(C2CC(c3cccc(Cl)c3)n3nc(N)nc3N2)cc1` (stereo not drawn) the Potency was inconclusive [inhibitor, single point]. For `CCN(CC)S(=O)(=O)c1cc(C(=O)Nc2cc(C)[nH]n2)ccc1Cl`, the Potency was inconclusive [inhibitor, partial curve]. For `Clc1ccc(CNc2nnnn2-c2ccccc2)c(Cl)c1`, the Potency was inconclusive [inhibitor, single point]. With `COc1ccc(NC(=O)C2CCCN2S(=O)(=O)c2cccs2)c([N+](=O)[O-])c1` (stereo not drawn) the Potency was inconclusive [inhibitor, full curve, poor fit]. For `CCCCN(C)CCN1C(=O)C2C(C(=O)Nc3ccc(Cl)cc3)C3C=CC2(O3)C1C(=O)NC1CCCCC1` (stereo not drawn), the Potency was inconclusive [inhibitor, partial curve]. In the case of `O=S(=O)(c1cccc(Cn2nnc(-c3ccccc3)n2)c1)N1CCOCC1`, the Potency is reported as inconclusive [inhibitor, single point]. With `COc1cccc(/C=N/NC(=S)NC2CC3CC2C2C=CCC32)c1O` (stereo not drawn) the “activity change, negative = inhibition” value was inactive: 4.56%. With `Cc1ccc(Cn2ccc(NC(=O)c3cc(C(C)C)on3)n2)cc1` the Potency was inconclusive [inhibitor, single point]. With `c1cc2ccc3ccc(CN4CCOCC4)c4ccc(c1)c2c34` the Potency was active: 10 µM. With `Cc1ccc(C)c(OCCn2ccnc2)c1` the Potency was inconclusive [inhibitor, single point]. In the case of `CC1CCCCN1S(=O)(=O)c1ccc2c(c1)C(C)(C)C(=O)N2C` (stereo not drawn), the “activity change, negative = inhibition” value is reported as inactive: 4.26%. For `COc1cccc(C#Cc2c(C=O)n(C)c3ccccc23)c1`, the Potency was inconclusive [inhibitor, full curve, poor fit]. With `CCn1c(SCC(=O)NCc2ccco2)nnc1-c1c[nH]c2ccccc12` the Potency was inconclusive [inhibitor, partial curve, poor fit]. For `COc1ccc(-c2n[nH]c(=S)n2-c2ccc3c(c2)OCCO3)cc1OC`, the Potency was inconclusive [inhibitor, partial curve]. For `COC(=O)c1cc(=O)n(Cc2ccc3c(c2)OCO3)c(=Nc2ccc(F)cc2)s1`, the Potency was inconclusive [inhibitor, single point]. For `FC(F)(F)c1cccc(NC(=S)NC(c2ccccc2)c2ccccc2)c1`, the Potency was inconclusive [inhibitor, single point]. For `CCCCCCn1c(=O)c(C(=O)Nc2ncccc2C)c(O)c2ccccc21`, the Potency was inconclusive [inhibitor, single point]. For `CCc1ccc(S(=O)(=O)NCc2cn3ccsc3n2)s1`, the Potency was “inactive”. With `CCN1CCN(S(=O)(=O)c2cc(OCC(=O)NC3CCCCC3)c(C)cc2Cl)CC1` the Potency was active: 7.08 µM. For `Cc1ccc(N(CC(=O)N2CCCCCC2)S(=O)(=O)c2ccccc2)cc1`, the “activity change, negative = inhibition” value was inactive: 21.2%. With `Cc1ccc(C(=O)Nc2ccc(S(=O)(=O)N3CCc4ccccc4C3)cc2)o1` the Potency was inconclusive [inhibitor, single point]. In the case of `COc1ccc(OC)c(CN2CCN(C(=O)c3ccc(NS(=O)(=O)c4cccc([N+](=O)[O-])c4)cc3)CC2)c1`, the Potency is reported as inconclusive [inhibitor, single point]. In the case of `Cc1cc(C)nc(N2N=C(C(F)(F)F)CC2=O)n1`, the “activity change, negative = inhibition” value is reported as inactive: 8.82%. With `COC(=O)c1ccc(Oc2nc(N(C)C)nc(N3CCOCC3)n2)cc1` the Potency was inconclusive [inhibitor, partial curve]. In the case of `COc1ccc([N+](=O)[O-])cc1NC(=O)C1CCCN1S(=O)(=O)c1cccs1` (stereo not drawn), the activity change, negative = inhibition is reported as inconclusive: -32.2% [inhibitor]. For `c1ccc(Nc2nc(-c3ccncc3)cs2)cc1`, the Potency was inconclusive [inhibitor, partial curve]. With `Cc1ccccc1-n1c(SCC(=O)N/N=C/C=C/c2ccccc2[N+](=O)[O-])nc2ccccc2c1=O` the Potency was inconclusive [inhibitor, full curve]. For `O=c1c2ccccc2oc2nc(-c3ccco3)n(Cc3ccccc3)c(=O)c12`, the Potency was inconclusive [inhibitor, single point]. With `Cc1nc2ccc(-c3nc4ccccc4o3)cc2[nH]1` the Potency was inconclusive [inhibitor, single point]. With `CN(C(=O)c1cccc(NC(=O)Cc2ccc(NC(=O)C3CCN(C(=O)C4CCCCC4)CC3)cc2)c1)C1CC1` the Potency was inconclusive [inhibitor, full curve]. With `C=CC[C@H](CC(=O)NCCO)C(=O)NC[C@@H](OC(=O)[C@@H](CC=C)Cc1ccc(F)cc1)c1ccccc1` the “activity change, negative = inhibition” value was inactive: -25.9%. For `Cn1cccc1Cc1nnc(SCC(=O)N2CCCc3ccccc32)n1-c1ccc(F)cc1`, the Potency was “inactive”. In the case of `Cc1ccccc1-c1noc(-c2ccccc2C(=O)NCC2CCCO2)n1` (stereo not drawn), the “activity change, negative = inhibition” value is reported as inactive: -11.6%. For `CSc1ccc(-c2nc(CSCC(=O)N3CCOCC3)c(C)o2)cc1`, the Potency was inconclusive [inhibitor, partial curve].
